# Screen size: about 360,000 compounds; about 7,500 (2.1%) were called active. This list was built around the results that the source calls inconclusive (neither active nor inactive); the mix of calls is not that of the screen. The call rests on the fitted dose curve; in most records, active means well fitted cell-killing curve with a large enough effect; inconclusive means small, poorly fitted or top-dose-only effect, or effect the other way, or another doubt; inactive means no such curve, though single readings can be large or run the other way. No potency is given beside an inconclusive call; the fits are too rough.
# Assay: qHTS for induction of synthetic lethality in tumor cells producing 2HG: qHTS for the HT-1080-IDH1KD cell line;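 on activity, negative = toxicity: 0% = DMSO wells and -100% = cell-free medium wells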
# Conditions: HT-1080 IDH1 knockdown viability, ATP luminescence, 48 h; activity, negative = toxicity: at 46.1 µM (top of the series) unless noted
# Method in brief: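 IDH1KD HT-1080 cells, 750/well, RPMI + 5% FBS; compound pinned after 2 h settling; 48 h, 37 °C; CellTiter-Glo luminescence; % activity normalised to DMSO and no-cell wells; curves fitted, classed by r2 and efficacy.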
# Potency means the concentration at half of the fitted maximal effect; tags describe the fitted curve by direction and shape.
SMILES,"activity, negative = toxicity",Potency
Cc1ccc([C@@H]2CC=C(C(=O)O)[C@H](c3cccc(F)c3)N2S(=O)(=O)c2ccccc2C)cc1,inactive: -6.07%,–
CC(Oc1cccc(Cl)c1)C(=O)Nc1ccc(N2CCOCC2)cc1N1CCOCC1 (stereo not given),inactive: -1.75%,–
CCN(CC)CCNCC(O)(c1ccc(Cl)cc1)c1ccc(Cl)cc1,–,active: 20.6 µM
Cc1cc(NC(=O)CSc2nnc(-c3ccoc3C)o2)no1,–,active: 6.31 µM
CCC(=O)NC(c1ccc([N+](=O)[O-])cc1)c1c(O)ccc2ccccc12 (stereo not given),–,"inconclusive [cytotoxic, single point]"
Cc1nn(C)c(C)c1CN(Cc1nc(CCC(C)C)no1)C(C)C,–,"inconclusive [cytotoxic, partial curve]"
O=C(c1ccc(F)cc1)C1CCN(Cc2cn[nH]c2-c2ccc(F)cc2)CC1,–,"inconclusive [cytotoxic, partial curve, poor fit]"
O=C(NCc1ccco1)C1CC(c2cc(C(F)(F)F)cc(C(F)(F)F)c2)=NO1 (stereo not given),–,active: 2.59 µM
COc1ccc(CCc2ccnc3ccccc23)cc1,–,"inconclusive [cytotoxic, single point]"
COc1ccc(CNC(=O)C2Cc3c(-c4ccc5c(c4)OCO5)ccnc3O2)cc1OC (stereo not given),–,"inconclusive [cytotoxic, partial curve]"
CC(C)(C)c1ccc(CN2N=C(/C=C/c3ccccc3)CCC2=O)cc1,–,"inconclusive [cytotoxic, single point]"
CC1=CC(C)(C)Nc2ccc(OC(=O)CN3C(=O)c4ccccc4C3=O)cc21,–,"inconclusive [cytotoxic, single point]"
COc1ccc(/C=N/NC2=NS(=O)(=O)c3ccccc32)cc1OC,–,"inconclusive [cytotoxic, single point]"
CSc1ccc(-c2nc(CN3CCCCC3c3cccnc3)c(C)o2)cc1 (stereo not given),inactive: -24.5%,–
Cc1nn(C)cc1S(=O)(=O)Nc1ccc(F)c(F)c1,inactive: -0.0794%,–
CC(=O)c1ccc(-c2ccc(C(=O)NCC(c3ccc(F)cc3)N3CCOCC3)o2)cc1 (stereo not given),inactive: 12%,–
O=C1OCC2=C1C(c1ccc3c(c1)OCO3)c1cc3c(cc1O2)OCO3 (stereo not given),–,active: 6.51 µM
CCN(CC)NC(=S)Nc1ccccc1,–,"inconclusive [cytotoxic, single point]"
CC1CC(C)CN(C/C=C/c2ccccc2[N+](=O)[O-])C1 (stereo not given),–,"inconclusive [cytotoxic, single point]"
CN(C)CC1CCC/C(=C/c2ccc(Cl)cc2)C1=O (stereo not given),–,"inconclusive [cytotoxic, single point]"
COc1ccc(/C=C2/SC(=S)N(Cc3ccccc3)C2=O)cc1O,–,"inconclusive [cytotoxic, single point]"
CC(C)Cc1ccc(C(C)C(N)=NCCc2ccccc2)cc1 (stereo not given),–,active: 18.4 µM
NC(=O)c1oc2ccccc2c1NC(=O)c1nc2ccccc2s1,inactive: 25.8%,–
CCN(CC)c1ccc(/C=N/NC(=O)CC(C)C)cc1,inactive: -12.3%,–
COc1cccc(C(=O)c2ccccc2NC(C)=O)c1,inactive: 5.34%,–

SMILES,"activity, negative = toxicity",Potency
COC(=O)c1c(NC(=O)/C=C/C(=O)O)sc(C)c1-c1ccc(C)c(C)c1,–,"inconclusive [cytotoxic, single point]"
CC(=Nc1ccccc1)C1=C(O)C(Cc2ccc(O)cc2)NC1=O (stereo not given),–,"inconclusive [cytotoxic, full curve]"
O=C(COc1cccc(F)c1)Nc1nc(-c2ccccn2)cs1,–,"inconclusive [cytotoxic, partial curve]"
CCO[C@@H]1OC(C(=O)N2CCCCCCC2)=C[C@H](c2ccc(C(F)(F)F)cc2)[C@H]1CCCO,inactive: -0.617%,–
c1ccc(Nc2nc(N3CCCCC3)nc(N3CCCCC3)n2)cc1,–,"inconclusive [cytotoxic, single point]"
S=C(NCc1ccco1)N1CCN(c2nc(-c3ccc(Cl)cc3)cs2)CC1,–,"inconclusive [cytotoxic, partial curve]"
CCOc1ccc2c(c1)C(C)=CC(C)(C)N2S(=O)(=O)c1ccc(NC(C)=O)cc1,–,active: 1.84 µM
Cc1cc(C)c(C(=O)CSC2=NC(N)=C(C#N)C3(CCCCC3)C2C(N)=O)cc1C (stereo not given),–,"inconclusive [cytotoxic, single point]"
COc1ccc(-c2cc(-c3ccc(OC)cc3)[nH]n2)cc1,inconclusive: 32.5%,–
Cc1ccc(/C=C/C(=O)Nc2cccc(S(=O)(=O)N3CCOCC3)c2)o1,inactive: -3.15%,–
Cc1ccc(S(=O)(=O)N2C[C@H]3C(=O)C[C@@H](c4ccccc4)N(S(=O)(=O)c4ccccc4C)[C@H]3C[C@H]2c2ccccc2)cc1,inactive: 6.47%,–
OCCNCc1cccc(OCc2ccccc2Cl)c1,–,"inconclusive [cytotoxic, single point]"
CN1N=C(C(C)(C)C)CC1=O,–,active: 18.4 µM
N#CC1=C(N)C2=CCCC[C@H]2[C@H](c2ccccc2)C1(C#N)C#N,–,"inconclusive [cytotoxic, partial curve]"
Cc1csc(Nc2ccccc2C(F)(F)F)n1,inactive: -6.01%,–
Fc1ccccc1CSc1ncnc2c1ncn2C1CCCO1 (stereo not given),inconclusive: -22.9% [cytotoxic],–
COc1ccc(N(CC(=O)NCCc2ccc(OC)c(OC)c2)S(=O)(=O)c2c(C)noc2C)cc1,inactive: 3.62%,–
Fc1ccc2c(c1)C(c1cccnc1)=NNC(c1cccs1)=N2,–,"inconclusive [cytotoxic, single point]"
Cc1cccc(Nc2c([N+](=O)[O-])ccc3nonc23)c1C,–,"inconclusive [rising, partial curve, poor fit]"
CC(O)(c1cccc(F)c1)c1nc(-c2ccc(Cl)cc2)cs1 (stereo not given),–,"inconclusive [cytotoxic, single point]"
CC(=O)Nc1ccc(S(=O)(=O)N2CCN(C(=O)c3ncoc3-c3ccc(C)cc3)CC2)cc1,inactive: -9.31%,–
Cc1ccc(Sc2ncccc2NC(=O)c2ccccc2Cl)cc1,inactive: -11.9%,–
CC1C2NC(=O)N(Cc3ccccc3)C1(C)Oc1ccccc12 (stereo not given),inactive: 0.323%,–
N#C/C(=C(/O)CN1CCN(c2ccccc2F)CC1)c1nc(-c2ccccc2)cs1,–,"inconclusive [cytotoxic, single point]"
CCn1c(C)nc([N+](=O)[O-])c1C(=O)O,–,"inconclusive [rising, single point]"

SMILES,"activity, negative = toxicity",Potency
O=C(COc1cc(F)ccc1[N+](=O)[O-])Nc1cccc(Br)c1,–,"inconclusive [rising, partial curve, poor fit]"
Cc1ccc(-c2noc(C3CCCN(C(=O)c4ccccc4Br)C3)n2)cc1 (stereo not given),–,"inconclusive [cytotoxic, single point]"
CCCC(=O)Nc1ccc(Sc2ccc([N+](=O)[O-])cc2)cc1,–,"inconclusive [cytotoxic, single point]"
CCn1c(CN2CCCCC2)nc2cc(S(=O)(=O)N3CCCCC3)ccc21,inactive: -0.676%,–
O=C(c1ccccc1F)N1CCC2CC1c1cc(-c3ccc4c(c3)OCO4)ccc12 (stereo not given),–,"inconclusive [cytotoxic, single point]"
C#CCn1cc(/C=C2\NC(=O)NC2=O)c2ccccc21,–,"inconclusive [cytotoxic, partial curve]"
CC(C)N1CC2(CC(c3ccccc3C(F)(F)F)=NO2)CN1C(=O)c1ccco1 (stereo not given),inactive: -5.55%,–
Nc1nc(Nc2ccccc2)nc2ccccc12,–,active: 20.6 µM
CN1CCN(CCCNC(=O)c2ccc3c(c2)N(Cc2ccc(F)cc2)CCS3)CC1,–,"inconclusive [cytotoxic, single point]"
CC(C)C[C@@H](COCc1ccc(Cl)cc1)N1CCN(C(=O)c2ccc(C(F)(F)F)cc2)CCC1=O,–,"inconclusive [cytotoxic, single point]"
O=C(NCc1ccco1)c1ccc(Cn2c(=O)c3sccc3n(Cc3cccc(F)c3)c2=O)cc1,–,"inconclusive [cytotoxic, single point]"
CC(C)(C)CC(C)(C)NC(=O)/C=C/C(=O)O,inactive: 5.05%,–
CCCCc1nc2cc(C(=O)N3CCC(OC)CC3)ccc2o1,inactive: -2.29%,–
Cc1ccc(C(=O)CSc2nnc(CNc3ccc(C)cc3C)o2)cc1,–,"inconclusive [cytotoxic, partial curve]"
CCOC(=O)c1cc2c(ccn2C)n1CC(=O)N(Cc1ccccc1)c1ccccc1,inactive: -16.2%,–
COc1ccc(/C=C/CN2CCCC(CO)(Cc3cccc(Cl)c3)C2)cc1 (stereo not given),–,active: 23.1 µM
Cc1nc(NS(=O)(=O)c2ccccc2)sc1NC(=O)OCCN(C)C,–,"inconclusive [rising, partial curve]"
Cc1oc(-c2ccccc2Cl)nc1Cn1cccc1C1=NC(c2ccccc2)CO1 (stereo not given),–,"inconclusive [cytotoxic, partial curve]"
O=[N+]([O-])c1ccc(CSc2ccc(S(=O)(=O)N3CCCC3)cn2)cc1,inactive: -11.3%,–
COc1cccc(CN2CCN(c3ncccn3)CC2)c1OC,inactive: 7.53%,–
CCCCn1nc(NC(=O)c2cccs2)c2cc3cc(OC)ccc3nc21,–,"inconclusive [cytotoxic, single point]"
NCCCN(Cc1ccc(Cl)cc1)c1ccc(Br)cn1,–,active: 11.2 µM
Cc1ccccc1N=C1NC(=O)C(CO)(CO)S1,inactive: 6.41%,–
COc1ccc(Cn2c(O)c(/C=N/NC(=O)c3cccnc3)c3ccccc3c2=O)cc1,–,active: 20.6 µM
O=C(Nc1ccc(N2CCN(C(=O)c3ccccc3)CC2)c(Cl)c1)c1ccco1,–,"inconclusive [cytotoxic, single point]"
